Source: paper PMC5515408
The list shows a part of the results. At the low end of the ranking the order means little.

The sequences below were run against MAX:MAX (p21) (UniProt P61244-2) (assay: protein-binding microarray (anti-MAX antibody)). Conditions: PBM: 15 mM Tris-HCl pH 7.5, 100 mM KCl, 0.075% NP40, 7.5 mM beta-mercaptoethanol, 375 ng/ul BSA, 8 ng/ul poly(dA-dT):(dA-dT), 550 ng complex, 60 min, room …; high values mean tight binding; double strand, one strand shown; sequences stand for … in CCGGC…TTAATAGCTAAGATTACTATATCGACG.
Sequence TGACGCTCAGTA has a binding signal (log2 normalized fluorescence) of -0.512.
In the case of TGAGTCTATGTA, the binding signal (log2 normalized fluorescence) was -0.843.
TGATGCATTGTA gave a binding signal (log2 normalized fluorescence) of 0.5.
TGACTAAGGGTA gave a binding signal (log2 normalized fluorescence) of -0.839.
TGAACACCCGTA was tested, and the binding signal (log2 normalized fluorescence) was 0.108.
For TGACACCTTGAA, the binding signal (log2 normalized fluorescence) was 0.466.
TGACGCCATGTA was tested, and the binding signal (log2 normalized fluorescence) was 0.577.
In the case of CCGCACGTGGTA, the binding signal (log2 normalized fluorescence) was 3.03.
TAGAACGTGGTA showed a binding signal (log2 normalized fluorescence) of 3.26.
In the case of TGTCATGTGGTA, the binding signal (log2 normalized fluorescence) was 3.19.
TGATCCAACGTA was tested, and the binding signal (log2 normalized fluorescence) was -0.546.
Sequence TGAGTGCTGGTA has a binding signal (log2 normalized fluorescence) of 0.17.
TTACCCGTGGTA was tested, and the binding signal (log2 normalized fluorescence) was 2.53.
With TGACACTTGGTA the binding signal (log2 normalized fluorescence) was 0.397.
With TGAACTATAGTA the binding signal (log2 normalized fluorescence) was -0.954.
With AATTCGGAACAG the binding signal (log2 normalized fluorescence) was 0.061.
TGACAAGAGGTA was tested, and the binding signal (log2 normalized fluorescence) was 0.179.
For TGAGTCTTGGTA, the binding signal (log2 normalized fluorescence) was -0.883.
In the case of TGAAGGAATGTA, the binding signal (log2 normalized fluorescence) was -0.174.
In the case of TGAACGAGGGTA, the binding signal (log2 normalized fluorescence) was 0.249.
Work on TGACACGTGTAC yielded a binding signal (log2 normalized fluorescence) of 3.15.
For TGACGTGAGGTA, the binding signal (log2 normalized fluorescence) was 0.923.
For TGATTTAGTGTA, the binding signal (log2 normalized fluorescence) was -1.06.
TGACGGTACGTA was tested, and the binding signal (log2 normalized fluorescence) was -0.183.
TGATGCCCAGTA was tested, and the binding signal (log2 normalized fluorescence) was -0.387.
TGACTGGCGGTA was tested, and the binding signal (log2 normalized fluorescence) was -0.264.
In the case of TGAACATAGGTA, the binding signal (log2 normalized fluorescence) was -0.157.
In the case of TGACACGTTGTC, the binding signal (log2 normalized fluorescence) was 3.12.
Sequence TGATAGTCTGTA has a binding signal (log2 normalized fluorescence) of -0.885.
In the case of TGACCGGTAGTA, the binding signal (log2 normalized fluorescence) was -0.573.
Sequence TGAAAGGTAGTA has a binding signal (log2 normalized fluorescence) of -0.646.
Work on TGATAATAGGTA yielded a binding signal (log2 normalized fluorescence) of -0.994.
For TGAAGATTAGTA, the binding signal (log2 normalized fluorescence) was -0.814.
Work on TGAGACACTGTA yielded a binding signal (log2 normalized fluorescence) of -0.484.
Sequence TGAGAATAAGTA has a binding signal (log2 normalized fluorescence) of -1.12.
TGACAATCAGTA was tested, and the binding signal (log2 normalized fluorescence) was -0.489.
TAATATGGGGTT showed a binding signal (log2 normalized fluorescence) of 0.37.
TGATAGGCAGTA showed a binding signal (log2 normalized fluorescence) of -0.788.
In the case of TGATTCACTGTA, the binding signal (log2 normalized fluorescence) was -0.711.
TGACTCCTCGTA was tested, and the binding signal (log2 normalized fluorescence) was -0.527.
In the case of TGACGCGTAGTA, the binding signal (log2 normalized fluorescence) was 0.217.
Work on TGACCTAGTGTA yielded a binding signal (log2 normalized fluorescence) of 0.00558.
TGAGAATTTGTA was tested, and the binding signal (log2 normalized fluorescence) was -1.31.
TGAAAAGCGGTA showed a binding signal (log2 normalized fluorescence) of -0.575.
TTACAGGTGGTA showed a binding signal (log2 normalized fluorescence) of 2.91.
TGATGACTAGTA was tested, and the binding signal (log2 normalized fluorescence) was -0.165.
With TGAAGAGCCGTA the binding signal (log2 normalized fluorescence) was -0.64.
TGAGGGGTAGTA was tested, and the binding signal (log2 normalized fluorescence) was 0.305.
Sequence CGACTCGGGGTT has a binding signal (log2 normalized fluorescence) of -0.0499.
For TGAAGGTGCGTA, the binding signal (log2 normalized fluorescence) was 0.285.
In the case of TGATCCACTGTA, the binding signal (log2 normalized fluorescence) was -0.566.
TGAATCAAGGTA showed a binding signal (log2 normalized fluorescence) of -0.372.
In the case of TGACACAGCGTA, the binding signal (log2 normalized fluorescence) was -0.0688.
For TGAGATTGTGTA, the binding signal (log2 normalized fluorescence) was -0.776.
TGATTGAGAGTA showed a binding signal (log2 normalized fluorescence) of -1.33.
For TGAGAGCGTGTA, the binding signal (log2 normalized fluorescence) was 2.11.
TGAACTGGAGTA was tested, and the binding signal (log2 normalized fluorescence) was -0.668.
TGGCAGGTGGTA gave a binding signal (log2 normalized fluorescence) of 2.58.
Work on TGACTACAAGTA yielded a binding signal (log2 normalized fluorescence) of -0.652.
TGACCTTTTGTA gave a binding signal (log2 normalized fluorescence) of -0.752.
Sequence TGATGGAAGGTA has a binding signal (log2 normalized fluorescence) of -0.0824.
TGAACGTTAGTA gave a binding signal (log2 normalized fluorescence) of -0.263.
TGATGCAGTGTA was tested, and the binding signal (log2 normalized fluorescence) was -0.158.
TGATGTTCGGTA gave a binding signal (log2 normalized fluorescence) of 0.0714.
TGATAACTCGTA gave a binding signal (log2 normalized fluorescence) of -0.352.
For TGATCTCAGGTA, the binding signal (log2 normalized fluorescence) was -1.01.
For TGACTCTATGTA, the binding signal (log2 normalized fluorescence) was -0.74.
With TGAGCGGACGTA the binding signal (log2 normalized fluorescence) was -0.884.
Work on TGAGTACGAGTA yielded a binding signal (log2 normalized fluorescence) of -0.584.
